Data reported in PubChem BioAssay AID602332 (National Center for Advancing Translational Sciences (NCATS), 2012).
About 75 (0.02%) of roughly 420,000 compounds were called active. The inconclusive results got no clear call from the source; some entries with a clear call stand among them for comparison. Calls follow the shape of the dose curve; as a rule, active = well fitted activation curve with a large enough effect; inconclusive = small, poorly fitted or top-dose-only effect; inactive = no such curve, though single readings can be large or run the other way. A potency beside an inconclusive call is a rough fit, not a confirmed value.

experiment: qHTS for Inducers of the Endoplasmic Reticulum Stress Response (ERSR) in Human Glioma: qHTS; settings: U87-MG GRP78 promoter luciferase reporter, 16 h; activation: hits give high values; also: nearly all actives have a fitted effect of over 35% in size; as to activation: % of control where 0% means no effect
How it was run: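 ERSR induction read as luciferase luminescence (Bright-Glo, 10 min at room temperature) in stably transfected human U87-MG glioma cells exposed to compounds for 16 h, using GRP78 as sensor.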
Potency is read from the fitted curve at half-maximal effect; tags tell the direction and shape of the fitted curve.

Compound | activation | Potency
COc1ccccc1-c1nnc(SCC(=O)c2c(N)n(C3CC3)c(=O)[nH]c2=O)n1C | inactive: -0.932% | 
O=[N+]([O-])c1ccccc1N/N=C\c1ccccc1F |  | inconclusive: 12.6 µM [activator, single point]
Nc1nc(-c2ccccc2)c(-c2ccccc2)n1N |  | inconclusive: 28.2 µM [activator, single point]
COc1cc(C(=O)OCC(=O)N(C)Cc2ccccc2)cc(OC)c1OC |  | inconclusive: 39.8 µM [activator, partial curve, poor fit]
O=C1/C(=C/c2ccncc2)SC(=S)N1Cc1ccccc1 |  | inconclusive: 50.1 µM [activator, single point]
CCCCCCCCCCCCCCCCCC(=O)NCC(COP(=O)([O-])OCC[N+](C)(C)C)OCC (stereo not given) |  | inconclusive: 6.56 µM [activator, partial curve, poor fit]
COc1ccccc1Nc1nc(-c2sc(NC(=O)CC(C)C)nc2C)cs1 |  | inconclusive: 28.2 µM [activator, single point]
c1ccc(N/N=C(\Cc2ncc[nH]2)c2ccccc2)cc1 | inactive: -0.553% | 
COc1ccc(Br)cc1CN1CCCC(C(=O)N2CCCCCC2)C1 (stereo not given) | inactive: -5.52% | 
N#Cc1cc(C(=O)c2cc(Br)ccc2O)cn(C2CC2)c1=O |  | inconclusive: 50.1 µM [activator, partial curve, poor fit]
CC1(Cc2ccccc2Cl)C(=O)Nc2ccc(OC(F)(F)F)cc21 (stereo not given) | inactive: -10.1% | 
CCc1ccc(N2C(=O)C3CCCN3C2=S)cc1 (stereo not given) |  | inconclusive: 63.1 µM [activator, single point]
COc1cccc(NC(=O)Nc2ccc(C(C)(C)C)cc2)c1 |  | inconclusive: 10 µM [activator, partial curve, poor fit]
CCn1nc([N+](=O)[O-])c(C(C#N)c2nc3cc(C(F)(F)F)ccc3s2)c(Cl)c1=O (stereo not given) |  | inconclusive: 5.01 µM [activator, single point]
CON(C)C(=O)/C=C/c1ccc([B-](F)(F)F)cc1 |  | inconclusive: 11.2 µM [activator, single point]
CCCN1C(=O)/C(=C/c2ccc(OCC(=O)OCC)cc2)NC1=S |  | inconclusive: 17.8 µM [activator, full curve, poor fit]
COC(=O)[C@H]1C[C@@H]1[C@H](NS(=O)(=O)c1ccccc1)c1ccccc1 | inactive: -5.18% | 
COCCCNC(=S)N/N=C/c1ccccc1O |  | inconclusive: 11.2 µM [activator, full curve, poor fit]
CCC(=O)N1c2ccc(S(=O)(=O)N3CCOCC3)cc2CC1C (stereo not given) |  | inconclusive: 50.1 µM [activator, single point]
O=C(Nc1cccc(C(F)(F)F)c1)c1cc(Br)cc(Br)c1O |  | inconclusive: 50.1 µM [activator, single point]
Cc1[nH]n(-c2ccccc2)c(=O)c1N=Nc1ccccc1O |  | inconclusive: 8.91 µM [activator, partial curve, poor fit]
O=C(Nc1cc(NC(=O)c2ccccc2Cl)ccc1Cl)c1ccccc1 | inactive: 0.191% | 

Compound | activation | Potency
CCc1ccc(NC(=O)[C@H](Cc2c[nH]c3ccccc23)NC(=O)[C@@H]2Cc3ccccc3CN2)cc1 |  | inconclusive: 50.1 µM [activator, single point]
O=C(/C=C/c1ccc2c(c1)OCO2)c1cccs1 |  | inconclusive: 31.6 µM [activator, single point]
CC(C)(C)[C@@H]1CCC(=O)N(CC[C@H](Sc2ccccc2)c2ccccc2)CC1 |  | inconclusive: 56.2 µM [activator, single point]
CNC(=S)N/N=C1\C(=O)c2cccc3cccc1c23 |  | inconclusive: 50.1 µM [activator, partial curve, poor fit]
Cc1cccc(N2CN(Cc3cccnc3)CNC2=S)c1 |  | inconclusive: 28.2 µM [activator, single point]
O=C1c2ccccc2S(=O)(=O)c2cc(C(=O)N(c3ccccn3)c3ccccn3)ccc21 | inactive: -0.335% | 
CN1CCN(c2cc(-c3ccoc3)ncn2)CC1 | inactive: 1.72% | 
FC(F)(F)c1cc(-c2cccs2)nc(N2CCOCC2)n1 |  | inconclusive: 50.1 µM [activator, single point]
Cc1ccc(N=Cc2cccc(O)c2O)c(C)c1 |  | inconclusive: 50.1 µM [activator, partial curve, poor fit]
COc1ccc2cc(C(=O)/C=C/c3cc(OC)c(O)c(OC)c3)ccc2c1 |  | inconclusive: 50.1 µM [activator, single point]
CC1CCC(NC(=O)Nc2cccs2)CC1 (stereo not given) | inactive: 2.77% | 
Cc1ccc(-c2[nH]nc3c2C(c2ccc(OC(=O)N4CCOCC4)cc2)C(C#N)=C(N)O3)cc1 (stereo not given) |  | inconclusive: 11.2 µM [activator, single point]
Cc1ccc(Sc2c([N+](=O)[O-])c(=O)n(C)c3ccccc23)cc1 |  | inconclusive: 56.2 µM [activator, single point]
C[C@@H]1CCCCCCCCC(=O)OCCN[C@H](C)CCCCCCCCC(=O)OCCN[C@H](C)CCCCCCCCC(=O)OCCN1 |  | inconclusive: 50.1 µM [activator, single point]
C/C(=C(/CCOC(=O)c1ccccc1)SS/C(CCOC(=O)c1ccccc1)=C(\C)N(C=O)Cc1cnc(C)nc1N)N(C=O)Cc1cnc(C)nc1N |  | inconclusive: 50.1 µM [activator, single point]
Cc1ccccc1Cn1nc(C)c(NC(=O)c2noc3c2CC(C(C)(C)C)CC3)c1C (stereo not given) | inactive: -4.59% | 
O=C1Cc2c([nH]c3ccc(Br)cc23)-c2ccccc2N1 |  | inconclusive: 0.0521 µM [activator, full curve, poor fit]
O=C(/C=C/c1ccccc1)c1cccs1 |  | inconclusive: 28.2 µM [activator, single point]
CN(C1=NS(=O)(=O)N=C(N(C)c2ccccc2)O1)c1ccccc1 |  | inconclusive: 39.8 µM [activator, partial curve, poor fit]
O=C(Nc1nc2c(s1)CCc1ccccc1-2)c1ccco1 |  | inconclusive: 10 µM [activator, partial curve, poor fit]
Oc1cccc(C2c3[nH]c4ccccc4c3CCN2Cc2ccoc2)c1 (stereo not given) | inactive: 1.63% | 
Fc1ccc(CN2CCN(c3ncnc4scc(-c5ccc(F)cc5)c34)CC2)cc1 | inactive: -4.93% | 

Compound | activation | Potency
Cc1cc(Cl)ccc1OCCCC(=O)NO |  | inconclusive: 8.91 µM [activator, full curve, poor fit]
CCCc1c(C(=O)N/N=C/c2ccco2)nnn1-c1nonc1N |  | inconclusive: 50.1 µM [activator, single point]
CN(C)CCNc1cccc2sc3ccc(O)cc3c(=O)c12 |  | inconclusive: 12.6 µM [activator, single point]
CC1(C)CC2(C)OC2C2(C1)N=NC(=Nc1ccccc1)O2 (stereo not given) |  | inconclusive: 12.6 µM [activator, single point]
Cc1ccc2c(C)c(C(=O)N3CCCC(C(N)=O)C3)oc2c1C (stereo not given) |  | inconclusive: 7.94 µM [activator, partial curve, poor fit]
Cc1noc(C)c1S(=O)(=O)N(C)C[C@H]1OCc2cnnn2CCCC(=O)N([C@@H](C)CO)C[C@H]1C |  | inconclusive: 11.2 µM [activator, single point]
C/C=C1\COC(C(=O)NCc2ccccc2)(C(F)(F)F)C=C1C=C1CCCCC1 (stereo not given) |  | inconclusive: 25.1 µM [activator, single point]
COc1ccc(Oc2ncc3nc(-c4ccc(OC)cc4)c(=O)n(C4CC4)c3n2)cc1 |  | inconclusive: 12.6 µM [activator, single point]
Cc1nc(C(=O)NNC(=O)c2c(-c3c(Cl)cccc3Cl)noc2C)cs1 |  | inconclusive: 70.8 µM [activator, single point]
O=[N+]([O-])c1cc(Cl)cc(/C=N/Nc2nc3ccccc3s2)c1O |  | inconclusive: 44.7 µM [activator, partial curve, poor fit]
COc1cccc(-c2cnc(NCc3cc(Cl)ccc3O)n2C)c1 | inactive: -4.92% | 
CC1CCCCN1C(=O)COc1ccc2ccc(=O)oc2c1 (stereo not given) |  | inconclusive: 50.1 µM [activator, single point]
Cc1ccc(OCCSc2nc(-c3cccs3)nc3cc(=O)[nH]n23)cc1Cl |  | inconclusive: 28.2 µM [activator, single point]
O=C(Cc1ccccc1[N+](=O)[O-])N1CCc2ccccc2C1 |  | inconclusive: 28.2 µM [activator, single point]
Oc1ccc(Br)cc1C1C=C(c2ccc3c(c2)OCO3)NC(c2c(F)cccc2Cl)N1 (stereo not given) |  | inconclusive: 17.8 µM [activator, single point]
Clc1ccccc1CN1CCN(CCCc2ccccc2)CC1 | inactive: -5.19% | 
COc1cc(-c2nnc(SCC(=O)Oc3ccccc3Cl)o2)cc(OC)c1OC |  | active: 22.4 µM
CN(c1cccc(NS(=O)(=O)c2ccccc2)c1)S(C)(=O)=O | inactive: -3.95% | 
Cc1ccc(CNC(=O)Nc2ccc(F)cc2)n1C |  | inconclusive: 28.2 µM [activator, single point]
CCN1CCCC1CNC(=O)c1cnn(-c2nccc(-c3ccccc3OC)n2)c1-c1ccco1 (stereo not given) | inactive: -0.426% | 
COc1ccccc1CN1CCC(CNC(=O)c2cnn(-c3ccc(C)c(C)c3)c2C2CCN(C(=O)OC(C)(C)C)CC2)CC1 | inactive: -6.95% | 
